According to PubChem BioAssay AID624171 (National Center for Advancing Translational Sciences (NCATS), 2012):
Hit rate of the full screen: of about 410,000 compounds, about 1,200 (0.29%) were called active. Inconclusive means that the source gave no clear call. Such entries were picked first, then a sample of the others. The call rests on the fitted dose curve; in most records, active means well fitted activation curve with a large enough effect; inconclusive means small, poorly fitted or top-dose-only effect; inactive means flat fitted curve, though single readings scatter. A potency beside an inconclusive call is a rough fit, not a confirmed value.

Test: qHTS of Nrf2 Activators; further: nearly all actives have a fitted effect of over 65% in size
Details: AREc32 ARE-luciferase reporter (MCF7-derived line), luminescence, 24 h; series mostly up to 46.1 µM
How it was run: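 Quantitative high-throughput format: AREc32 reporter cells, 1000 per well, received compound by pin transfer and were incubated 24 hr at 37 deg C, 5% CO2, before Steady-Glo luminescence detection.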
Potency means the concentration at half of the fitted maximal effect; tags describe the fitted curve by direction and shape.

Potency, inconclusive:
CCCC/C=C1\CCc2c([nH]c3ccccc23)C1=O 12.6 µM [activator, single point]
Brc1ccc(-c2nnc(-c3ccco3)o2)cc1 22.4 µM [activator, single point]
Cc1cc(C)cc(Oc2nc3ccccn3c(=O)c2/C=C(\C#N)C(=O)NC2CCS(=O)(=O)C2)c1 (centres undefined) 12.6 µM [activator, single point]
Cc1cc(N2CCOCC2)n2nc(-c3cccc(F)c3)cc2n1 0.891 µM [activator, full curve, poor fit]
O=C(/C=C/c1cccs1)N1CCc2ccccc21 2.24 µM [activator, full curve, poor fit]
O=[N+]([O-])c1cccc(-c2csc(Nc3ccccc3)n2)c1 0.562 µM [activator, partial curve, poor fit]
Nc1nonc1C(=Nc1ccc(Br)cc1)NO 11.2 µM [activator, partial curve]
O=C(/C=C/c1ccc(NC(=O)c2ccccc2-c2ccccc2C(=O)O)cc1)c1ccccc1 31.6 µM [activator, single point]
O=C(COc1ccccc1Cl)NCc1ccco1 14.1 µM [activator, partial curve, poor fit]
N=c1n(CCCOc2ccccc2Cl)c2ccccc2n1CC(N)=O 31.6 µM [activator, single point]
Fc1c(F)c(C(F)(F)F)c(F)c(F)c1N/N=C\c1cccs1 3.16 µM [activator, full curve, poor fit]
Fc1ccc(-c2cnc(-c3cccs3)o2)cc1 15.8 µM [activator, partial curve, poor fit]
Oc1ccccc1C=NN=CC=Cc1ccccc1 22.4 µM [activator, partial curve, poor fit]
Cc1ccc(NCCC(=O)c2ccccc2)cc1Cl 15.8 µM [activator, single point]
CCOC(=O)c1c(CC(C)C)csc1/N=C/C1=C(O)CCCC1=O 35.5 µM [activator, partial curve, poor fit]
COc1ccc(C(Nc2ccccn2)c2c(NC(=O)c3ccco3)sc(C)c2C)cc1OC (centres undefined) 15.8 µM [activator, single point]
COC(=O)c1ccccc1NC(=O)COC(=O)/C=C/c1ccco1 0.794 µM [activator, full curve, poor fit]
COc1cc2c3nnc(-c4ccccc4)c-3cn(Cc3ccccc3F)c2cc1OC 22.4 µM [activator, single point]
Cc1c(C(=O)N/N=C/c2cccnc2)sc(N)c1C#N 17.8 µM [activator, single point]
c1ccc(C2=Nn3c(nnc3-c3n[nH]c4c3CCC4)SC2)cc1 11.2 µM [activator, partial curve]
O=C(N/N=C\c1ccc([N+](=O)[O-])o1)c1cncc(Br)c1 3.16 µM [activator, single point]
N/C(=N\OC(=O)/C=C/c1ccccc1Cl)c1ccncc1 12.6 µM [activator, partial curve, poor fit]
COC(=O)c1c(NC(=O)CCc2ccc(C)o2)sc(C)c1C 17.8 µM [activator, single point]
c1cncc(Nc2nc(-c3cccs3)cs2)c1 10 µM [activator, partial curve]
Nc1nc(CCl)nc(Nc2ccccc2)n1 17.8 µM [activator, single point]
O=C1NC2(CCCCC2)C(=O)N1/N=C/c1ccccc1Br 11.2 µM [activator, single point]
CCOc1cccc(/C=C/c2ccc3cccc(O)c3n2)c1O 1.26 µM [activator, full curve, poor fit]
Cc1ccc(OCCNC(=O)/C=C/c2ccco2)cc1C 12.6 µM [activator, partial curve]
CC(/C=C/c1ccco1)=N\NC(=O)c1cc(Cl)ccc1O 14.1 µM [activator, partial curve, poor fit]
S=C1SCN(Cc2cccnc2)CN1Cc1ccccc1 12.6 µM [activator, partial curve]
CCOC(=O)/C=C/C(=O)OCC(=O)Nc1ccc(C)cc1 31.6 µM [activator, single point]
Cn1c(NCc2ccccc2F)nc2cc(-c3cccc(Cl)c3)sc2c1=O 11.2 µM [activator, partial curve]
Cc1ccc(-n2nc(C)c3c2OC(N)=C(C#N)C3c2ccco2)cc1 (centres undefined) 35.5 µM [activator, single point]
COC(=O)c1ccccc1NC(=O)COCc1cc(-c2cccs2)on1 0.794 µM [activator, full curve, poor fit]
CC(O)(c1cccc(F)c1)c1nc(-c2ccoc2)cs1 (centres undefined) 22.4 µM [activator, single point]
CSC1=NC(C)(C)C=C(/C=C/c2c(Cl)cccc2Cl)N1 20 µM [activator, single point]
COc1cccc(/C=C/C(=O)c2ccc3c(c2)OCO3)c1OC 22.4 µM [activator, single point]
N#C/C(=C\C=C\c1ccccc1)C(=O)N1CCCC1 12.6 µM [activator, single point]
O=C(Nc1nnc(C2=COCCO2)o1)c1ccc([N+](=O)[O-])s1 17.8 µM [activator, single point]
O=C(O)c1cccc(CN2C(=O)S/C(=C/c3cccc([N+](=O)[O-])c3)C2=O)c1 31.6 µM [activator, single point]
COC(=O)/C=c1\sc2n(c1=O)C(C)=CC(C)(C)N=2 28.2 µM [activator, single point]
O=C(O)c1cc([N+](=O)[O-])c(Sc2nc3ccccc3[nH]2)c([N+](=O)[O-])c1 12.6 µM [activator, single point]
O=C(Oc1cccc2cccnc12)c1ccco1 22.4 µM [activator, single point]
O=C(/C=C/c1ccccc1)/C=C/c1ccccc1 3.16 µM [activator, single point]
O=C(Nc1ccc(Cl)c(C(F)(F)F)c1)c1ccco1 7.94 µM [activator, partial curve]
NC(=O)c1cc2ccccc2oc1=NCc1ccccc1 11.2 µM [activator, partial curve]
O=C(c1ccc(Br)cc1)c1cc2ccc(O)cc2oc1=O 17.8 µM [activator, single point]
Cn1c(=O)c(C(=O)NNC(=O)c2ccccc2F)c(O)c2ccccc21 1.41 µM [activator, full curve, poor fit]
O=C(/C=C/Nc1ccc(Br)cc1F)c1ccco1 0.562 µM [activator, full curve, poor fit]
Cc1cc(C)n2nc(-c3sccc3-n3cccc3)cc2n1 7.94 µM [activator, partial curve]
O=C(Nc1oc2ccc(Cl)cc2c(=O)c1-c1ccc(F)cc1)c1ccco1 15.8 µM [activator, single point]
Cc1cc(C)cc(Cn2ncc(Cl)c(Cl)c2=O)c1 2.82 µM [activator, partial curve, poor fit]

Potency, inactive:
Cc1ccccc1CC1(CO)CCCN(C(=O)c2cc(Cl)ccc2F)C1 (centres undefined)
O=C(NCC1(N2CCCCC2)CCCCC1)C1CC(=O)N(c2ccc3c(c2)OCCO3)C1 (centres undefined)
CCOC(=O)c1nn(-c2cccc(C)c2)c2nc(-c3ccccc3)c(C#N)c(=O)n12
Cc1oc2cc3oc(=O)c(CC(=O)N4CCCCC4)c(C)c3cc2c1C
Cc1ccc(SC(C)C(=O)Nc2ccncc2)cc1 (centres undefined)
CCCCN(C)c1c(C)nc2ccc(C(=O)NCCc3c[nH]c4ccccc34)cn12
Cc1nc([N+](=O)[O-])cn1-c1nc2ccccn2c1[N+](=O)[O-]
O=C(NCc1cccc(Cl)c1)c1cccc2c(-c3cccnc3)coc12
Cc1ccc(C)c(N(C)C(=O)c2cc3c(s2)-c2ccccc2OC3)c1
Cc1cc(C)c2c(CN3CCCCC3)cc(=O)oc2c1
O=C(CSc1nc(=O)n(CCN2CCOCC2)c2c1CCC2)Nc1ccc(OC(F)(F)F)cc1

Potency, active:
O=C(CCS(=O)(=O)c1ccc(Cl)cc1)Nc1nc(-c2ccncc2)cs1 11.2 µM
O=C1/C(=C/c2cccs2)CCc2ccccc21 11.2 µM
CC(=O)Oc1c(Cl)c(N2CCOCC2)c(OC(C)=O)c2ccccc12 15.8 µM
N/C(=N\OC(=O)c1cccc2ccccc12)c1cccnc1 2 µM
Nc1ccccc1N1C(=O)c2cccc3cccc(c23)C1=O 8.91 µM
O=C(COc1ccccc1[N+](=O)[O-])N/N=C/c1ccccn1 11.2 µM
